Source: publication PMC7819943, “Rice protein-binding microarrays: a tool to detect cis-acting elements near promoter regions in rice”
The list shows a part of the results.

The sequences below were run against T1, OsWOX13 (Oryza sativa, UniProt Q5QMM3 1-267) (assay: protein-binding microarray (RPBM); PBS, 2% BSA, 51.3 ng/ul salmon testes DNA, 50 uM zinc acetate, 200 nM TF, 25 C, 1 h; high values mean tight binding). Conditions: protein: recombinant; tags: N-terminal polyhistidine and DsRed monomer fusion (pET32a); label: CyDye5-dUTP incorporated in the synthesized complementary strand; 3' TTTTT single-stranded linker to array surface; dsDNA, one strand shown.
T1 sequence: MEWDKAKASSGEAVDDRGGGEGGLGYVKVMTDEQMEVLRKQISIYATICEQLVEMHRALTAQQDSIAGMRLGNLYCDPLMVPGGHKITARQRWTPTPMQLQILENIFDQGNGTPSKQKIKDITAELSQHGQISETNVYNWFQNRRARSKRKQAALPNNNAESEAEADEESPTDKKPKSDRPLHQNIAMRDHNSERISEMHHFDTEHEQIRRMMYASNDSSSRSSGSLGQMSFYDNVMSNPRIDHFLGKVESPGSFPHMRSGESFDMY
Method in brief: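 Binding signal is defined as the fluorescence intensity of each feature in arbitrary units, read on an Axon 4000B scanner. Transcription factors with N-terminal polyhistidine and DsRed fusions came from E. coli BL21-CodonPlus and were purified on Ni–NTA. They were incubated at 200 nM for 1 h at 25 °C on a custom Agilent array that had been made double-stranded with Cy5-dUTP, with 50 µM zinc acetate present, and the array was washed.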

Sequence | binding signal
ATATATAATTCATTAAAATAAATTAACGATATAACACATACGGAGTCACCTAGTGCAG | 4960 fluorescence intensity (a.u.)
AGATGATTTGTAGCCGGTAGTTGGCTATACTATTAAACTTCGGAGTCACCTAGTGCAG | 22400 fluorescence intensity (a.u.)
TTAATTAGACTTAATAAATTTATCTCGTAATTTGTAAGCGCGGAGTCACCTAGTGCAG | 50900 fluorescence intensity (a.u.)
AGGGTAATTACACATTTAACCCTATTTTAAGGTCTAACTACGGAGTCACCTAGTGCAG | 18400 fluorescence intensity (a.u.)
GTTGGATTGGCACCTTCTACCGACCGTGCACGTTCATCATCGGAGTCACCTAGTGCAG | 10600 fluorescence intensity (a.u.)
CCCTGGAGATTAGATTGATTTCAAAGGATTACCAAGATTTCGGAGTCACCTAGTGCAG | 29400 fluorescence intensity (a.u.)
TATAATAATTATTTAATTAATTATGTGCTAATATATCACTCGGAGTCACCTAGTGCAG | 39500 fluorescence intensity (a.u.)
TAAAATTAATAATGAAAATGTTTTAGCTCTTACATGAGAGCGGAGTCACCTAGTGCAG | 11900 fluorescence intensity (a.u.)
CTTTGACAGATTGGTGGGAGATAAGAGAAATGAGGAGGTGCGGAGTCACCTAGTGCAG | 51900 fluorescence intensity (a.u.)
GACTTGATGGGTATCGTAGTAGCGGAAGCTTGTGGAGTTGCGGAGTCACCTAGTGCAG | 5560 fluorescence intensity (a.u.)
TACCATGATTGGGCTGCAACTAAATTGACAGGTCAGCCATCGGAGTCACCTAGTGCAG | 60400 fluorescence intensity (a.u.)
GCTGCTGAGTTAATTTTCTGCATAACTGTCAGATTGTATTCGGAGTCACCTAGTGCAG | 4510 fluorescence intensity (a.u.)
TACAAATTTGCCACTGGGTTAAATCTATATATTGTAGGATCGGAGTCACCTAGTGCAG | 4380 fluorescence intensity (a.u.)
AAAATATAATGAATTTGACGTTAAGATTTTAACCCTAAGTCGGAGTCACCTAGTGCAG | 4200 fluorescence intensity (a.u.)
TCTATCTCCATTACTCAACCAATCACAACTCTTCACCATTCGGAGTCACCTAGTGCAG | 6170 fluorescence intensity (a.u.)
CCGCAAATTAAATCACCACAACTCCTGCCCTCAAAATAATCGGAGTCACCTAGTGCAG | 9540 fluorescence intensity (a.u.)
CAAACTAATAGACTGTAATACCCGGTGTTCTTGAGCATGGCGGAGTCACCTAGTGCAG | 29400 fluorescence intensity (a.u.)
AATTGCGTGATTGTGCTAATCAAAATGCAGAATTGGATATCGGAGTCACCTAGTGCAG | 23000 fluorescence intensity (a.u.)
TTGCATCAATCAGTCAATCGAGAACGGATCGGCACTCTGACGGAGTCACCTAGTGCAG | 35900 fluorescence intensity (a.u.)
AAATTGATAAGATATATTAGTAACTAATATATCACTCCATCGGAGTCACCTAGTGCAG | 7530 fluorescence intensity (a.u.)
AGATGACAGGAACATAGCCATGCGCATCTCTTTCAGGAGCCGGAGTCACCTAGTGCAG | 5080 fluorescence intensity (a.u.)

Sequence | binding signal
ACAGCATTAGTGATTAGTGTTTAATCCGGCCCAATAATTCCGGAGTCACCTAGTGCAG | 6120 fluorescence intensity (a.u.)
TACTGTCAATTTGCGTCTCGCTATAAATATGTTTCTGCTTCGGAGTCACCTAGTGCAG | 4930 fluorescence intensity (a.u.)
ATAAAATTTTCATTTAAATTTGTATGAAATTTCTATTTTCCGGAGTCACCTAGTGCAG | 11600 fluorescence intensity (a.u.)
TTTGATAGAATTTATTTCAAATAAAATCAAAATTAGCAATCGGAGTCACCTAGTGCAG | 33600 fluorescence intensity (a.u.)
ATCAGCACAACAATAATTAATTTACGGTGCTCGGACATGACGGAGTCACCTAGTGCAG | 12600 fluorescence intensity (a.u.)
GGTGGGACGTGGTGGGCGTCAAGGCGGCGGTGGGAGGGGACGGAGTCACCTAGTGCAG | 3810 fluorescence intensity (a.u.)
TCAAATTTGAATCAGATATAATTTAAATTCAAATTTGAAACGGAGTCACCTAGTGCAG | 13200 fluorescence intensity (a.u.)
ATAGATTAATATAAAATATATCACTCCGCAAACATATATACGGAGTCACCTAGTGCAG | 6510 fluorescence intensity (a.u.)
AATCTATCCTCAATTGATTTACGAGAAAATCACGAGAAAACGGAGTCACCTAGTGCAG | 3510 fluorescence intensity (a.u.)
CTCTCTAATTTCAGAAACTAAACACAGCCTTGGTTTAGTTCGGAGTCACCTAGTGCAG | 6980 fluorescence intensity (a.u.)
CATCATTGAAATTTGAACACTTCTATTAATTAGATGCATTCGGAGTCACCTAGTGCAG | 5050 fluorescence intensity (a.u.)
TAATAATTTTATTCATAAATTACTTTTCGTTTACAAATATCGGAGTCACCTAGTGCAG | 3630 fluorescence intensity (a.u.)
GTTTTCGAATCTCGAGTTGATTGTTTTCAAATCTCAAATTCGGAGTCACCTAGTGCAG | 5430 fluorescence intensity (a.u.)
TCATCATGTGCTAAATTAAATTGTTGATCGGAAACCAAGACGGAGTCACCTAGTGCAG | 5100 fluorescence intensity (a.u.)
AAATTATCACTAAACCTATAGTTTTGTGATAATTTTATTACGGAGTCACCTAGTGCAG | 24800 fluorescence intensity (a.u.)
CACGGGTTAATTAACAAAACTCAACTTGTTTCTAAGTAGGCGGAGTCACCTAGTGCAG | 19000 fluorescence intensity (a.u.)
TAATTAATCACGTGCTAATCGATCGCTCTGGACGTGTGCACGGAGTCACCTAGTGCAG | 10900 fluorescence intensity (a.u.)
TATATGATTAGTTTTGTAAGTAGTCTATATTTAATACTCTCGGAGTCACCTAGTGCAG | 22500 fluorescence intensity (a.u.)
TAAATAATTGATATGCTAATAAATAATTAGTCCCTTTTACCGGAGTCACCTAGTGCAG | 24300 fluorescence intensity (a.u.)
TTAATGATTTATTGTACGTGAAAGAGAATCACCAAGAGTACGGAGTCACCTAGTGCAG | 19300 fluorescence intensity (a.u.)
ATAATTGAATTTATAAGACATAGCATGTTAACAAAGCAAACGGAGTCACCTAGTGCAG | 32600 fluorescence intensity (a.u.)

Sequence | binding signal
AGTTTAATAGTGTTAATTAAAATGATAATAAAGTAAACACCGGAGTCACCTAGTGCAG | 25300 fluorescence intensity (a.u.)
ATGTAAAATTTAATTTTCTATATTATATTAAAGTTGTCACCGGAGTCACCTAGTGCAG | 12700 fluorescence intensity (a.u.)
GAGAGAATCACAAATCACATCGATAAACATCTATACTCCACGGAGTCACCTAGTGCAG | 3190 fluorescence intensity (a.u.)
GTCTAAATTTGTAGTAATATGATATGTCGCTTTTAGTGTTCGGAGTCACCTAGTGCAG | 20700 fluorescence intensity (a.u.)
CATAAAATTGATGTTATTATATCTACATTTAAAAGTATTTCGGAGTCACCTAGTGCAG | 5740 fluorescence intensity (a.u.)
TAAAATATTAATCATGTTTTATCATCTAACAACAATGAAACGGAGTCACCTAGTGCAG | 4550 fluorescence intensity (a.u.)
CATCATTCCCATCAATCAATCAAATCCGTGCGAGAAGCGGCGGAGTCACCTAGTGCAG | 31800 fluorescence intensity (a.u.)
GCGAAGATTTGATGTAATCATGTAGACTACCATCTCCATACGGAGTCACCTAGTGCAG | 19900 fluorescence intensity (a.u.)
CCATTAGATTAGCACTAATTATCATACTTAGTCATTAGCTCGGAGTCACCTAGTGCAG | 59100 fluorescence intensity (a.u.)
AATTTCTAATAATTATACGTCTGACCTTATTCTGAAGATTCGGAGTCACCTAGTGCAG | 4420 fluorescence intensity (a.u.)
CCAAATTAGAGAGGTTCAGATATCCTTATCTCGAAAGAGTCGGAGTCACCTAGTGCAG | 4440 fluorescence intensity (a.u.)
GAGGCCAATCAGGTTGATGATGAAGAGGATGATTTCAGCGCGGAGTCACCTAGTGCAG | 18200 fluorescence intensity (a.u.)
CCTTAATTCAAGTTATGAAATTCAAAACTGCTCCGTTTCCCGGAGTCACCTAGTGCAG | 6040 fluorescence intensity (a.u.)
CATCTTAATTGGGCCAGAAGGTCATATATGTACTGGAAGGCGGAGTCACCTAGTGCAG | 28200 fluorescence intensity (a.u.)
CCATATAATAGGCAATTACTTATGCAAATGATAACTGATCCGGAGTCACCTAGTGCAG | 17500 fluorescence intensity (a.u.)
ATGTCAACAAATTACGCATAAACTAAAATTCATGGACACCCGGAGTCACCTAGTGCAG | 8200 fluorescence intensity (a.u.)
CCATATCAATATCATATAAACTGGATTAGGGCTATTACCTCGGAGTCACCTAGTGCAG | 3840 fluorescence intensity (a.u.)
GCGAATAATTTGTATGTATAAGTAGTTGCTTTCAATATGTCGGAGTCACCTAGTGCAG | 7010 fluorescence intensity (a.u.)
TTGGTAAAATTGACAAATATATAGCTACATTTAGTTGTTACGGAGTCACCTAGTGCAG | 14200 fluorescence intensity (a.u.)
TCCAATCATATTTTGATTTATTTTGGAACGGAGAGAGAAGCGGAGTCACCTAGTGCAG | 17100 fluorescence intensity (a.u.)
TAAAATTGCATCATCTTACTTTTACATTTGAATCATCTATCGGAGTCACCTAGTGCAG | 4050 fluorescence intensity (a.u.)

Sequence | binding signal
TTCCCTTCTTAACCAATCATAATCCTGCACTATTCATTTTCGGAGTCACCTAGTGCAG | 3760 fluorescence intensity (a.u.)
CTAATAGAATGACGTGTAATTCCTTGTCACATTCATAAAACGGAGTCACCTAGTGCAG | 7340 fluorescence intensity (a.u.)
ACAATAAAATTTATTGATGCCAGAAATATGCCGTTTGTCTCGGAGTCACCTAGTGCAG | 4740 fluorescence intensity (a.u.)
TTTTCTTATTGATTATAGATTTATAGTAGTTCTGTGTGTACGGAGTCACCTAGTGCAG | 36800 fluorescence intensity (a.u.)
TGAACTGAAATAATCAAAACTACAAATTAGTTGAAACTGTCGGAGTCACCTAGTGCAG | 5640 fluorescence intensity (a.u.)
ACGACTGATTTGCGACGCTGTTGGGCGAGGTAGAGGCGGCCGGAGTCACCTAGTGCAG | 12300 fluorescence intensity (a.u.)
TAGCTAAATGTCAATTTTCTCGTCTATGTGGCAGTCGCCACGGAGTCACCTAGTGCAG | 19100 fluorescence intensity (a.u.)
AAAGATTGACCAATGGCAAGCTAGCACAAGACACCAAGCACGGAGTCACCTAGTGCAG | 19300 fluorescence intensity (a.u.)
TCATTTGATGGATGATTGCAAAGTAAAGGTTTCATTGATCCGGAGTCACCTAGTGCAG | 32100 fluorescence intensity (a.u.)
CCATAATATGTGGGTGATTTGTTGCAAAAGTTTGTTTTAACGGAGTCACCTAGTGCAG | 10800 fluorescence intensity (a.u.)
GAATCAATCAAATAAAATCTATTATGTATATTCATTCATACGGAGTCACCTAGTGCAG | 29300 fluorescence intensity (a.u.)
ACCCTTCTAAAATTTGTCATTGTCAAATTTTAACACATTTCGGAGTCACCTAGTGCAG | 5980 fluorescence intensity (a.u.)
TGTAATTAAGCTATGAGTAATTAGCCATAGTTTCTTTAAACGGAGTCACCTAGTGCAG | 6440 fluorescence intensity (a.u.)
GATGATGAATGGTTATAGAGGCAGGGCACCATCCCACCTTCGGAGTCACCTAGTGCAG | 6420 fluorescence intensity (a.u.)
AAGATTCAATTAAACTTTTAAAATTTAACCATCAATAAATCGGAGTCACCTAGTGCAG | 11500 fluorescence intensity (a.u.)
TACTAGTTACTATAGCTGTGATTGGTGTTTAATTGGTTACCGGAGTCACCTAGTGCAG | 25600 fluorescence intensity (a.u.)
TGCTAGTAATTATGAAAGTACTTCCCTCAAGGCACCCAATCGGAGTCACCTAGTGCAG | 3820 fluorescence intensity (a.u.)
AATAAACTGATTTCTACGAAATTTCTATAAAATAGTTACTCGGAGTCACCTAGTGCAG | 17300 fluorescence intensity (a.u.)
TATACATATCCAATTAATTAATACAAGGATGTAGGGCTCTCGGAGTCACCTAGTGCAG | 15800 fluorescence intensity (a.u.)
CGCCTAATATTAATTGCATCTTATTGCTGTCTTTTGTATTCGGAGTCACCTAGTGCAG | 15700 fluorescence intensity (a.u.)
CCTGATTTCACTGGATGCCATGATTTACAATATATGTGAGCGGAGTCACCTAGTGCAG | 28800 fluorescence intensity (a.u.)
